# From the BET-seq Pho4 binding data (Le et al. 2018)
# This is one part of the list. Values were computed here from the reads of four pooled replicates and scatter widely.
# Target: T1, Pho4 (S. cerevisiae) (UniProt P07270)
# T1 sequence: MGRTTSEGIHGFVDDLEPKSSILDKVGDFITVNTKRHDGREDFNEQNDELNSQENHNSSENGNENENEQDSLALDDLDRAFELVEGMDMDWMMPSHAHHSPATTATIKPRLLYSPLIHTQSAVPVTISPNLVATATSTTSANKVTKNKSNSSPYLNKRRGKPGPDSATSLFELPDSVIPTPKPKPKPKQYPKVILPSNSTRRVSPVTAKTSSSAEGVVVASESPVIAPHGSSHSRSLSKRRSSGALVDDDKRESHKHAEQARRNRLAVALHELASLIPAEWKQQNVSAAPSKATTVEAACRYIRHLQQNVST
# Assay: relative binding free energy (BET-seq); higher = weaker binding
# Settings: reference: library average
row,Sequence,relative binding free energy
1,AATGTCACGTGTGATA,0.11 kcal/mol
2,ATGAGCACGTGGGGTG,-0.33 kcal/mol
3,GGAGTCACGTGTGGGG,0.24 kcal/mol
4,CAGGGCACGTGCGGTT,-0.18 kcal/mol
5,CAGGCCACGTGGGTTG,-0.22 kcal/mol
6,GCGTACACGTGTGTAG,0.2 kcal/mol
7,GGTAGCACGTGGGGCA,-0.2 kcal/mol
8,TTTTTCACGTGGGTCG,0.15 kcal/mol
9,CGTTACACGTGGGGTT,-0.1 kcal/mol
10,TGATTCACGTGTGTAG,0.23 kcal/mol
11,TATATCACGTGACTGG,0.25 kcal/mol
12,GCTTTCACGTGTCGTG,0.34 kcal/mol
13,TCGGTCACGTGTATGG,0.02 kcal/mol
14,GGGAGCACGTGGGTGA,-0.17 kcal/mol
15,GCGGGCACGTGGGTTT,-0.12 kcal/mol
16,TTGTTCACGTGTTTCA,0.35 kcal/mol
17,ATTCGCACGTGATGGT,-0.02 kcal/mol
18,TTTTACACGTGGCAGG,0.14 kcal/mol
19,ATAATCACGTGTCGGT,0.12 kcal/mol
20,TGCAGCACGTGGTTAT,-0.2 kcal/mol
21,TTAGACACGTGGGCGA,-0.13 kcal/mol
22,CCGTTCACGTGATGTT,0.44 kcal/mol
23,GGCTACACGTGGTGTA,-0.03 kcal/mol

row,Sequence,relative binding free energy
1,CGTGACACGTGTATGG,0.07 kcal/mol
2,TTAAGCACGTGGGCAT,-0.21 kcal/mol
3,TTTCACACGTGAGGGC,0.51 kcal/mol
4,GAAGTCACGTGAGTTG,0.23 kcal/mol
5,TAGGTCACGTGGTCTA,-0.05 kcal/mol
6,CTATACACGTGGTGGA,-0.04 kcal/mol
7,CGGTTCACGTGGGCCT,0.33 kcal/mol
8,TGGCGCACGTGCTGGG,-0.23 kcal/mol
9,TATGTCACGTGATAAA,0.1 kcal/mol
10,CCTGTCACGTGGTGTA,0.04 kcal/mol
11,TTTGGCACGTGCGGCT,-0.28 kcal/mol
12,GGGGGCACGTGCGTGT,-0.14 kcal/mol
13,TGCATCACGTGGGCTT,0.1 kcal/mol
14,CGCGGCACGTGTGTAT,0 kcal/mol
15,AAGATCACGTGGGGGC,0 kcal/mol
16,GGTAACACGTGATGGC,0.14 kcal/mol
17,TGCTCCACGTGGGTTT,-0.07 kcal/mol
18,AGGAGCACGTGAGCAG,0.2 kcal/mol
19,GAGGACACGTGTGGGT,0.14 kcal/mol
20,ATTTTCACGTGGTGCT,0.28 kcal/mol
21,GCGCGCACGTGTTGTG,-0.11 kcal/mol
22,TCTTGCACGTGGGGCT,-0.1 kcal/mol
23,GGTCGCACGTGTTTGG,0.07 kcal/mol

row,Sequence,relative binding free energy
1,GATTTCACGTGGTTTC,0.23 kcal/mol
2,TTTCTCACGTGAGGGA,0.34 kcal/mol
3,GTGTTCACGTGCCGGA,0.18 kcal/mol
4,TATAGCACGTGTTGAT,-0.01 kcal/mol
5,TGGTGCACGTGGAGTC,0.04 kcal/mol
6,GTGCGCACGTGGAGAT,0 kcal/mol
7,CGGGTCACGTGGTAAG,0.19 kcal/mol
8,CGGGGCACGTGCGGGG,-0.28 kcal/mol
9,CTAGTCACGTGTTCGG,0.09 kcal/mol
10,AGTTTCACGTGGATTT,0.34 kcal/mol
11,ATTATCACGTGAGCTT,0.22 kcal/mol
12,TTTGGCACGTGTTGAC,-0.04 kcal/mol
13,GGCTGCACGTGTTGGT,0.01 kcal/mol
14,CTTAGCACGTGTCGGG,-0.06 kcal/mol
15,TAGTTCACGTGTGTAG,0.18 kcal/mol
16,AGTTTCACGTGTCAGG,0.39 kcal/mol
17,TGTTGCACGTGCGTAG,-0.06 kcal/mol
18,GTTTCCACGTGCGGTG,0.14 kcal/mol
19,GTGGTCACGTGATATC,0.27 kcal/mol
20,GTACGCACGTGGTAAG,0.05 kcal/mol
21,TTATTCACGTGTGGAA,0.27 kcal/mol
22,CTGTACACGTGCGGGG,-0.12 kcal/mol
23,GTAAACACGTGTGAGA,0.18 kcal/mol

row,Sequence,relative binding free energy
1,GCTGCCACGTGGGGTT,-0.21 kcal/mol
2,GAGTGCACGTGCGAGT,0.02 kcal/mol
3,ATTACCACGTGGTAGT,-0.17 kcal/mol
4,TTTTGCACGTGCACGT,-0.12 kcal/mol
5,CGGGCCACGTGTGATG,0.12 kcal/mol
6,GGCGTCACGTGTGCGA,0.12 kcal/mol
7,AGAAGCACGTGATGTA,0.08 kcal/mol
8,CTTTGCACGTGTATAG,0 kcal/mol
9,AGTGGCACGTGTAGAA,-0.04 kcal/mol
10,AATTGCACGTGTATTT,0.09 kcal/mol
11,ATTCGCACGTGGGTTT,-0.14 kcal/mol
12,CCTGACACGTGAGGGG,0.22 kcal/mol
13,CGCGTCACGTGGTTTA,0.08 kcal/mol
14,TGAGGCACGTGTCGTC,0.06 kcal/mol
15,GTGGTCACGTGTGATA,0.29 kcal/mol
16,TCTGTCACGTGAATTT,0.37 kcal/mol
17,GGTATCACGTGTCTGC,0.22 kcal/mol
18,TCGGTCACGTGTGATG,0.11 kcal/mol
19,TATATCACGTGAATTT,0.36 kcal/mol
20,ATTAACACGTGGGTCG,-0.11 kcal/mol
21,GTCGACACGTGGGTTT,0.05 kcal/mol
22,ATCTACACGTGCGGGG,0.17 kcal/mol
23,GTTGTCACGTGTCTGT,0.1 kcal/mol

row,Sequence,relative binding free energy
1,GGCAGCACGTGAGTAG,0.36 kcal/mol
2,TTTGTCACGTGTCTCT,0.14 kcal/mol
3,TGGCTCACGTGGGGCC,0.11 kcal/mol
4,TAAGTCACGTGCGGAA,0.2 kcal/mol
5,ATAAGCACGTGCGTTT,-0.07 kcal/mol
6,AGGGCCACGTGTTGAT,-0.15 kcal/mol
7,GAGTGCACGTGAGGTG,0.23 kcal/mol
8,AGGGGCACGTGAAACT,0.27 kcal/mol
9,ATTATCACGTGGTATT,0.06 kcal/mol
10,TAAAGCACGTGTCGTG,-0.12 kcal/mol
11,TCGTGCACGTGGACGG,-0.1 kcal/mol
12,AGGGCCACGTGGGAAT,-0.12 kcal/mol
13,AGAGTCACGTGTATTG,0.18 kcal/mol
14,GGTGACACGTGGGATG,-0.04 kcal/mol
15,ACATGCACGTGTTTGT,-0.07 kcal/mol
16,TAAATCACGTGTGTCG,0.15 kcal/mol
17,CGTTGCACGTGGTGAG,0.03 kcal/mol
18,TTAGGCACGTGAGACT,0.09 kcal/mol
19,ATGTACACGTGGATGA,0.16 kcal/mol
20,TGTTACACGTGTAGAT,0.23 kcal/mol
21,GTGTTCACGTGGTGAC,0.35 kcal/mol
22,TTTTTCACGTGTGATC,0.36 kcal/mol
23,GCGTTCACGTGGTAGC,0.35 kcal/mol
